The structures appear in SMILES notation. The full ranking holds about 13,000 compounds; the median of “IFI” is about 4, and the highest 2% start at about 17. Some of the results follow.

The nature of the test: GSK_TCMDC: Inhibition Frequency Index (IFI). The number of non-kinase HTS assays where a compound showed > 50 % inhibition, expressed as a percentage of the number of such assays in which the compound was tested (-0 is zero). It is filed as functional.
In turn, `Cc1cccc2nc(-c3cccc(-c4cccc(CNCCc5cccn5C)c4)c3)[nH]c12` displayed an IFI of 0.98%.

Compound `COc1ccc(-c2nc3cccnc3n2CC(=O)Nc2cc(Cl)c(Cl)cc2Cl)c(OC)c1` had an IFI of 7.69%. With `COc1ccc(CN2CCCC(OC(c3ccc(F)cc3)c3ccc(F)cc3)C2)c(O)c1` (stereo not drawn), the IFI amounted to 2.94%. The figure for `Cn1cc(CN2CCCC(COC(c3ccccc3)c3ccccc3)C2)cn1` (stereo not drawn) is 5.3%; for `CN(C)CCCOc1ccc(CCCCc2ccc(Cl)cc2C(=O)c2ccccc2)cc1` it is 5.15%.

Regarding `Cc1c(C(=O)NCc2ccncc2)sc2nc(-c3cccc([N+](=O)[O-])c3)cn12`, the IFI was 4%. With `Fc1ccc(C(OCC2CCCN(Cc3cccc4cccnc34)C2)c2ccc(F)cc2)cc1` (stereo not drawn), the IFI came out at 3.13%. With `COc1cc2nc(NCCN3CCOCC3)n3nc(-c4ccccc4)nc3c2cc1OC`, the IFI is -0%. On to `COc1ccc(C(O)CNC(C)CCc2ccccc2)cc1C(F)(F)F` (stereo not drawn), for which the IFI came to 0.83%.

For `COc1ccc(C2C(C(=O)Nc3cc(OC)c(OC)c(OC)c3)c3cc(OC)c(OC)cc3C(=O)N2C)cc1` (stereo not drawn), the IFI was found to be 0%.

`COc1cc2nc(N3CCC(CNC(=O)/C=C/c4cccc(C)c4)CC3)nc(N)c2cc1OC` displayed an IFI of 1.79%. `CC(C)NCc1cccc(-c2cccc(-c3nc4ccccc4[nH]3)c2)c1` showed an IFI of 4.9%. `Cc1sc(N2CCCCC2)nc1C(=O)Nc1ccc(F)cc1C(F)(F)F` showed an IFI of -0%. In the case of `CCOc1cc(C(=O)NCCCN2CCCCC2C)ccc1-c1nc2cc(Cl)ccc2[nH]1` (stereo not drawn), the IFI was found to be 0.69%.

Turning to `O=C1NC(=S)N/C1=C/C=C/c1ccc([N+](=O)[O-])o1`, the IFI amounted to 6.67%.

In turn, `CCCCOc1cc(CNCCCCCCNCc2cc(OCCCC)cc3ccccc23)c2ccccc2c1` returned an IFI of 12.5%.

In the case of `CCCCNc1c(C(=O)OCC)c(C)nc2c1[nH]c1ccccc12`, the IFI was 2.17%. `CC(=O)Nc1ccc(C(=O)Nc2cccc(-c3ccc(-c4nc5cccc(C)c5[nH]4)cc3)c2)cn1` yielded an IFI of 5.36%.

For the compound `Nc1nc(N)c2c(ccc3nn(C4CCCC4)cc32)n1`, the IFI was 2.78%.

Regarding `CCCNC(=O)c1cncc(-c2ccc(CNCCCc3ccccc3)cc2)c1`, the IFI turned out to be 1.61%. Consider `O=C1CCCN1CCCNCc1ccc(-c2cccc(-c3nc4ccccc4[nH]3)c2)cc1`, for which the IFI turned out to be 1.92%. As for `CC(C)(C)c1ccccc1OC(=O)c1ccccc1`, the figure is 1.5%; as for `Cc1nc2c(=O)sc3ccccc3c2n1Cc1ccccc1`, 2.16%.

On to `FC(F)(F)c1cccc(CNC2CCN(CC3CCCCC3)CC2)c1`, for which the IFI was 2.7%. In turn, `CCN(CC)c1ccccc1CNC(=O)c1cc(Cl)c(N)cc1OC` returned an IFI of 2.94%. As for `COc1ccc(-c2cccc(NC(=O)c3cccc(Cl)c3)c2)cc1CN1CCCC1`, the figure is 6%; as for `Cc1[nH]c(C)c(-c2ccc(-c3ccc(OC(F)(F)F)cc3)cc2)c(=O)c1Cl`, 3.67%; as for `COc1cc2ccccc2c(CNCCCCCCNCc2c(OC)c(OC)cc3ccccc23)c1OC`, 12.1%. `CS(=O)(=O)c1ccc(CCNCc2ccc(-c3cccc(-c4nc5ccccc5[nH]4)c3)cc2)cc1`: the IFI was determined as 6.73%. Take `CN(C)CCCNCc1ccc(-c2ccc(CNCCOc3ccccc3)cc2)cc1`: the IFI was 4.86%. In turn, `COc1cc2c(cc1COc1ccccc1)CCN1Cc3cc(OC)c(OC)cc3CC21` (stereo not drawn) had an IFI of 0%. As to `CS(=O)(=O)c1cc2c(Nc3ccc(N4CCOCC4)cc3)c(C(N)=O)cnc2cc1Br`, the IFI amounted to 4.96%. For the compound `Cc1c(CNCCCNc2cc(=O)c3ccccc3[nH]2)sc(C(F)F)c1Br`, the IFI is 5.84%. As to `O=c1c(NCCCN(Cc2ccc(F)cc2)c2ccccn2)c(NCc2ccncc2)c1=O`, the IFI stood at 0.7%. For `CCN(CC)CCCC(C)Nc1ccnc2[nH]c3ccccc3c12` (stereo not drawn), the IFI was 0.78%.

`CCNC(=O)CCc1cccc(Br)c1` had an IFI of 3.76%. Regarding `COc1ccc(Nc2ccnc3cc4ccccc4cc23)cc1`, the IFI turned out to be 3.73%.

Take `COc1cc(Nc2nc(N)n(C(=O)c3ccc4c(c3)OCO4)n2)cc(OC)c1OC`: the IFI is 9.09%. Regarding `NCC1CCCN1Cc1ccc(-c2ccc(-c3nc4cc(C(F)(F)F)ccc4[nH]3)s2)cc1` (stereo not drawn), the IFI stood at 6.93%. For the compound `O=C(C=Cc1cn(-c2ccccc2)nc1-c1ccccc1)N1CCN(c2ccncc2)CC1`, the IFI was found to be 9.33%. The compound `CCCc1cn2c3c(cc(C(=O)N[C@@H](Cc4ccccc4)[C@H](O)CNC4CCOCC4)cc13)N(C)S(=O)(=O)CC2` registered an IFI of 2.36%.

In turn, `Cn1c(N)c(C(=O)CSc2ncc(-c3ccc(F)cc3)n2Cc2ccccc2)c(=O)n(C)c1=O` gave an IFI of 1.49%. The compound `COc1cc(NCC(C)CNCc2cn(Cc3ccccc3)c3ccccc23)nc2ccccc12` (stereo not drawn) had an IFI of 7.19%. `O=C(Nc1ccc(Cl)cc1)Nc1nc2cc([N+](=O)[O-])ccc2[nH]1` gave an IFI of 6.29%. Turning to `Cc1[nH]c(C)c(-c2ccc(OCCOc3ccc(C(F)(F)F)cn3)cc2)c(=O)c1Br`, the IFI came to 3.77%.

With `N[C@@H](Cc1cc(I)c(Oc2ccc(O)c(C(=O)O)c2)c(I)c1)C(=O)O`, the IFI is -0%. `O=C(/C=C/c1cccc2c1OCO2)Nc1ccnc2ccncc12` gave an IFI of -0%. As for `O=C(Nc1nccs1)c1cn(-c2ccccc2)nc1-c1ccc(Cl)s1`, the IFI amounted to 2.14%. The compound `O=C(CC1CCCCC1)NCC(NCCCNc1cc(=O)c2ccccc2[nH]1)c1cc(Br)cc(Br)c1` (stereo not drawn) returned an IFI of 4.51%. The compound `O=C(N[C@H]1CCN(CCc2ccc(O[C@H]3CCNC3)c(Cl)c2)C1)c1ccc(Cl)c(Cl)c1` registered an IFI of 3.55%. Take `Cc1c(N)ccc2[nH]c(-c3ccc(N)cc3)nc12`: the IFI is 4.2%. The figure for `CC(C)CCNCc1c(O)ccc2ccccc12` is 0%; for `Cc1cc(NC2CCCC2)nc(Nc2ccccc2C)n1` it is 3.08%.

The compound `COc1cccc(-c2nc3c(N4CCN(c5ccncc5)CC4)cccc3n2CC2CCCCCN2)n1` (stereo not drawn) yielded an IFI of 2.03%. Turning to `CN(C)c1cc(NC(=O)Nc2ccc(SC(F)(F)F)cc2)c2ccccc2n1`, the IFI was 15%. In the case of `OC1=C2C(=Nc3ccccc3SC2c2cccs2)c2ccccc21` (stereo not drawn), the IFI worked out at 3.5%. Turning to `C[C@H](NC(=O)c1c(CN2CCC(N3CCCCC3)CC2)c(-c2ccccc2)nc2cc(O)ccc12)C1CCCCC1`, the IFI came out at 2.14%. Consider `FC(F)(F)c1cnc(Sc2nnc(-c3ccco3)o2)c(Cl)c1`, for which the IFI came out at 6.38%. Compound `Clc1ccc(OCc2ccccc2)c(-c2nc(-c3nc4ccc(Cl)cc4[nH]3)cs2)c1` displayed an IFI of 1.3%. For `N=C(N)NN=Cc1c2ccccc2c(Cl)c2ccc(Cl)cc12`, the IFI worked out at 11.7%. Consider `COc1ccccc1NC(=O)Nc1cccc(-c2ccc(-c3nc4cc(C(F)(F)F)ccc4[nH]3)cc2)c1`, for which the IFI amounted to 6.06%. For the compound `COc1ccc(-c2ccc(NC(=O)c3ccc(C#N)cc3)cc2)cc1CN(C)CCO`, the IFI turned out to be 2.97%.

Take `CC(=O)Nc1ccc(CN2CCc3ccc(NS(=O)(=O)c4cccc(OCc5ccc(Cl)cc5)c4)cc3CC2)s1`: the IFI was determined as 7.06%.

The compound `N#Cc1ccc(N(CCNS(=O)(=O)c2cc(Br)c(Cl)s2)Cc2ccccc2C(F)(F)F)cc1C(F)(F)F` displayed an IFI of 2.96%.

`Cc1noc(C)c1-c1cccc(CNCc2ccc(-c3cccc(-c4nc5ccccc5[nH]4)c3)cc2)c1` yielded an IFI of 5.71%.

As for `CCN(c1ccc(O)c(CN2CCCCC2)c1)c1ccc([N+](=O)[O-])cn1`, the IFI is -0%.

In turn, `CC(C)NCc1ccc(-c2ccc(-c3nc4cc(C(F)(F)F)ccc4[nH]3)s2)cc1` had an IFI of 8.57%. `COc1ccc(CNCCc2cccs2)cc1-c1ccc(OC)c(S(=O)(=O)NCCN2CCCC2)c1` gave an IFI of 7%. Regarding `O=C(NCc1cccc(C(F)(F)F)c1)C1CCCN(C(=O)c2ccc(O)c(-c3ccc(Cl)c(Cl)c3)c2)C1` (stereo not drawn), the IFI worked out at 4.51%. `CN(C)CCN1CCN(CCCN2c3ccccc3Sc3ccc(C(F)(F)F)cc32)CC1` gave an IFI of 9.79%. `CN1CCN(c2ccnc3ccc(NC(=O)Nc4ccc5c(c4)CCCC5=O)cc23)CC1`: the IFI stood at 0%.

In the case of `COc1cc(Cl)c(C)cc1-n1cc(C(=O)c2cc(Br)ccc2O)cc(C#N)c1=O`, the IFI is 4.29%. As to `COc1c(C2=CCN(CCCCNC(=O)c3ccc(-c4ccc(C#N)cc4)cc3)CC2)ccc2c1CCCC2`, the IFI is 7.27%.

For `CC(Cc1ccc(NC(=O)c2ccc(CNCc3ccccc3)cc2)cc1)N(CCc1cccc(Cl)c1)C(=O)OC(C)(C)C` (stereo not drawn), the IFI is 1.44%. The figure for `COc1cc2c(c(Cl)c1OC)CCN(Cc1ccccc1)CC2c1ccc(C(N)=O)cc1` (stereo not drawn) is -0%. The figure for `C=CCOC(=O)N1CCC(CNCc2ccc(-c3cccc(-c4nc5cccc(C)c5[nH]4)c3)cc2)C1` (stereo not drawn) is 7.84%; for `CC(C)NCc1ccc(-c2ccc(-c3nc4cc(F)ccc4[nH]3)cc2)cc1` it is 7.77%; for `O=C(NC1CC1)c1cnc(N2CCCC(c3ccccc3)C2)c(Cl)c1` (stereo not drawn) it is 6.12%.

`COc1cc(OC)cc(C(=O)Nc2cccc(-c3cn4ccc(C)cc4n3)c2)c1`: the IFI is -0%.

`CCOc1ccc(N2CCN(CCCCNC(=O)c3ccc(NC(=O)c4ccc(Cl)cc4)cc3)CC2)c(OCC)c1` yielded an IFI of 3.54%. `O=C(/C=C/c1ccc(Cl)c(Cl)c1)NCCCCCN1CCC(NC(=O)Nc2cccc(C(F)(F)F)c2)CC1` displayed an IFI of 10%.

The compound `N#Cc1cccc(-c2cnc(N)c(-c3nc4cc(S(N)(=O)=O)ccc4[nH]3)c2)c1` returned an IFI of 5.04%. For the compound `CCN(CC)C(=O)C1CCCN(c2cc(C)nc(Nc3ccc(Cl)cc3)n2)C1` (stereo not drawn), the IFI stood at 7.23%. The compound `O=C(N[C@@H](Cc1ccccc1)[C@H](O)CNC1CCCc2ccccc21)c1cc(C2CCCC2)cc(N2CCCC2=O)c1` (stereo partly drawn) registered an IFI of 10.6%.

The compound `CCc1nc(N)nc(N)c1-c1ccc(C(C)(C)C)cc1` displayed an IFI of 2.08%. The compound `CO/C(=C\C=C\c1cc2cc(Cl)c(Cl)cc2[nH]1)C(=O)NCCCN1CCN(c2cccc(O)c2)CC1` showed an IFI of 14.6%. As for `COc1cc2nccc(Nc3ccc(NC(=O)c4ccc(C)cc4)c(O)c3)c2cc1OC`, the figure is 5.11%; as for `Brc1cc(Br)c2c(c1)C(NCCCNc1nc3ncccc3[nH]1)CCN2` (stereo not drawn), 6.15%.

Compound `COc1ccc2ncc(F)c(NC(=O)C3CCC(NCc4cc5c(F)cccc5[nH]4)CC3)c2n1` (stereo not drawn) registered an IFI of 2.86%. `FC(F)(F)c1ccc2[nH]c(-c3cccc(-c4ccc(CNCCc5ccncc5)cc4)c3)nc2c1` gave an IFI of 9.8%.

In turn, `N=C(NCCc1c[nH]c2ccccc12)NCc1ccccc1Cl` showed an IFI of 4.32%. Take `COc1ccc(CCN(C)CCCOc2ccc(NC(=O)COc3cccc4sc5ccccc5c(=O)c34)cc2)cc1OC`: the IFI came out at 10%. Turning to `COc1cc(C(=O)N2N=C(c3c(-c4ccccc4)c4cc(Br)ccc4[nH]c3=O)CC2c2cccc([N+](=O)[O-])c2)cc(OC)c1OC` (stereo not drawn), the IFI was 1.54%.

Source of the values: ChEMBL document CHEMBL1157539, “Thousands of chemical starting points for antimalarial lead identification” (Nature, 2010).
